Among all 310,000 compounds or so, about 14,000 (4.5%) showed an effect of 50% or more. The effect is printed as a negative number. This is one part of the list.
Biological target: human ether-à-go-go-related gene (hERG) potassium channel (human, UniProt Q12809)
Assay: primary screen, population patch clamp on CHO cells stably expressing hERG
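Also: peak tail current of the secondary pulse compared with the same well before compound.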

Chain of human ether-à-go-go-related gene (hERG) potassium channel (Q12809 whole entry, looked up): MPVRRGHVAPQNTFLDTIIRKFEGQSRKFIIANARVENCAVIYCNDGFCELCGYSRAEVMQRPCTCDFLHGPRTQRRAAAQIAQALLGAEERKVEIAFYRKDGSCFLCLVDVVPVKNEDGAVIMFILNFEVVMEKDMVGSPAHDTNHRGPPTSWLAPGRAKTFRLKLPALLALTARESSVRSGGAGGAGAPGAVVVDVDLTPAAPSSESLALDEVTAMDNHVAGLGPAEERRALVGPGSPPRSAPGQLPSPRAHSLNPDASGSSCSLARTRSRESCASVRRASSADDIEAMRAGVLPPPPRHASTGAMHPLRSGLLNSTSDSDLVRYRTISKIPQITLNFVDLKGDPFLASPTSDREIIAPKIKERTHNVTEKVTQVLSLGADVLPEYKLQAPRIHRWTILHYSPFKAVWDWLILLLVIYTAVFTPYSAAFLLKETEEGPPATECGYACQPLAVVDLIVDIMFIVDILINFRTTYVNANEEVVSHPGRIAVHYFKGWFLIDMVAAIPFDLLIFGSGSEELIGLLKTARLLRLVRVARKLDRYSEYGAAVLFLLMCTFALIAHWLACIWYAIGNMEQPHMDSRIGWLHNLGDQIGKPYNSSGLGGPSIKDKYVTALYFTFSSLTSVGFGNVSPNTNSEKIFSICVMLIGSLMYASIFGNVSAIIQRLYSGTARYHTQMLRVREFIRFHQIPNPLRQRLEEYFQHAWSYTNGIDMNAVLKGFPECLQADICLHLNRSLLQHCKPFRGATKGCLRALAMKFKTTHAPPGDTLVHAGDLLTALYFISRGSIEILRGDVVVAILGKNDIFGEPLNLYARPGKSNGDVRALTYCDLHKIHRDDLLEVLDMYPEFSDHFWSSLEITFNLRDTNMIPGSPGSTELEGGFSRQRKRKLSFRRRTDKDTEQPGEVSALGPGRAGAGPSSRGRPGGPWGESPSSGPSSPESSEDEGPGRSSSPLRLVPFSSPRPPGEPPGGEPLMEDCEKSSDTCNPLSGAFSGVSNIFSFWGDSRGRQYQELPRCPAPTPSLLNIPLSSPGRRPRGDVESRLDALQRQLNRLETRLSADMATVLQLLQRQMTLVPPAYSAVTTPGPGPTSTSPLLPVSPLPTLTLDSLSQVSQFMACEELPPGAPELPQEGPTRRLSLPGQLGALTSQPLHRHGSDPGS

Compound	hERG current change (%, negative = inhibition) at 10uM
Cc1cc(C)n2nc(SCC(=O)Nc3c(C)n(C)n(-c4ccccc4)c3=O)nc2n1	1.69%
O=C(COc1ccc2c(c1)oc(=O)c1ccccc12)NCCN1CCOCC1	-11%
COC(=O)C1=NNC2C(=O)N(C3CCCCC3)C(=O)C12 (stereo not drawn)	-1.72%
CCCOc1ccc(-c2c(C(=O)N/N=C/c3cccs3)nnn2-c2nonc2N)cc1	19.3%
c1ccc(Cn2nnc(CNc3ccccc3)c2-c2c(CNc3ccccc3)nnn2Cc2ccccc2)cc1	6.62%
O=C(c1ccc2ccccc2c1)C1CCCN(C(=O)c2cnccn2)C1 (stereo not drawn)	-31.2%
C=CCn1c(C)c(C(C)=O)c(SC)nc1=S	-5.54%
O=C(NC1CCCC1)C(c1ccncc1)N(C(=O)c1csnn1)C1CCCC1 (stereo not drawn)	-2.05%
CCOc1cc(C(c2c(C)[nH][nH]c2=O)c2c(C)[nH][nH]c2=O)ccc1O	2.19%
NS(=O)(=O)c1ccc(CCNC(=O)CNCCc2ccccc2)cc1	16.2%
COc1ccccc1N1CCN(C(=O)C2CCN(S(=O)(=O)c3ccccc3)CC2)CC1	-15.3%
N/C(=N\OC(=O)c1cc(-c2ccccc2)nc2ccccc12)c1ccccn1	13.6%
O=C(c1ccco1)N1CCN(S(=O)(=O)c2c(Cl)cccc2Cl)CC1	-20.9%
CCCCCOC(=O)Cn1c(N2CCCCCC2)nc2c1c(=O)[nH]c(=O)n2C	-5.81%
COCCN(CCOC)S(=O)(=O)c1ccc(C(=O)Nc2ccncc2)cc1	-11.6%
O=C(COc1ccc(=O)n(-c2ccccc2)n1)Nc1ccccc1	-1.87%
COc1cc2c(cc1OC)CN(S(=O)(=O)c1cccs1)CC2	-17.6%
c1ccc(-c2nnc(SCc3nc4ccccc4[nH]3)n2Cc2ccco2)nc1	-8.18%
N#Cc1c(C(F)(F)F)cc(-c2ccc(F)cc2)[nH]c1=O	33.1%
CC(C)c1cc(CNC(=O)CCc2nnc(CCCCc3ccccc3)o2)on1	4.23%
C=C(C)CSc1nc(N)c2c3c(sc2n1)CCC3	-5.7%
COc1ccccc1N1C(=O)C2C3C=CC(CC3)C2C1=O (stereo not drawn)	7.75%
COC(=O)c1ccc(/C=C2\N=C(SC)SC2=O)cc1	9.47%
CC(C)CN(C(=O)CSc1nnc(C2CC2)n1-c1ccccc1)C1CCS(=O)(=O)C1 (stereo not drawn)	-0.403%
CCCS(=O)(=O)Nc1c(C(=O)O)[nH]c2ccccc12	12%
O=S(=O)(/C(=C/c1ccc(C(F)(F)F)cc1)c1nc2ccccc2[nH]1)c1ccccc1	-4.01%
CCOC(=O)c1sc(N)c(C(=O)OC)c1C	5.27%

Compound	hERG current change (%, negative = inhibition) at 10uM
Cc1ccccc1C(=O)c1c[nH]c(C(=O)NCCc2ccccn2)c1	-3.69%
O=C(Nc1ccccc1Br)c1cccc2ccccc12	1.37%
Cc1cc(NS(=O)(=O)c2ccc(NC(=O)CSc3nc4sc(C)c(C)c4c(=O)[nH]3)cc2)no1	-4.03%
c1ccc(SSc2ccccn2)nc1	6.66%
O=C(CC1SC(N2CCCCC2)=NC1=O)Nc1ccc(C(=O)NCCc2ccc(F)cc2)cc1 (stereo not drawn)	-9.01%
Cc1ccc(C2c3[nH]c4ccccc4c3C[C@H]3C(=O)N(c4ccccc4C(=O)N4CCC[C@@H]4C(=O)O)C(=O)N23)cc1 (stereo partly drawn)	-0.654%
CC(=O)c1cn(-c2ccc(Cl)cc2)c(=O)n(Cc2ccc(F)cc2)c1=O	1.04%
Cc1ccc(S(=O)(=O)NCC(=O)N(CC(=O)NCC2CCCO2)Cc2ccccc2Cl)cc1 (stereo not drawn)	-4.07%
CCOC(=O)c1ccc(NC(=O)CSc2nc3c(c(=O)n2-c2ccccc2OC)SCC3)cc1	10.2%
C/C(=N\Nc1nc(C)c(C)s1)c1ccc([N+](=O)[O-])cc1	14.9%
CC(Oc1ccc(Cl)cc1Cl)C(=O)N(Cc1ccco1)C1CCS(=O)(=O)C1 (stereo not drawn)	-25.6%
CCNC(=O)NC(=O)CSc1ccc(S(=O)(=O)N2CCCCC2)cn1	0.377%
Cc1cc(C)c(S(=O)(=O)Nn2cnnc2)c(C)c1	22%
CCCCOc1ccc(/C=N/NC(=O)c2nnn(-c3nonc3N)c2CN2CCCCCC2)cc1	5.06%
COC(C(=O)Nc1ccc(Cl)cc1C)c1ccccc1 (stereo not drawn)	-14.1%
CC(C)NC(=O)COc1coc(CN2CCN(Cc3ccccc3)CC2)cc1=O	11.9%
CCc1nc(NCCO)c(C#N)c2c1CCCC2	13.4%
O=c1cc(-c2ccccc2)nc2cc(-c3ccc(Br)cc3)[nH]n12	21.1%
O=C1NC(=O)[C@]2(Cc3ccccc3N3CCN(c4ccccc4)CC32)C(=O)N1c1ccccc1 (stereo partly drawn)	-7.93%
CSCC(=O)N1CCCC(CNC(=O)c2ccc(-c3ccccc3)cc2)C1 (stereo not drawn)	-28.5%
CCOC(=O)[C@@H]1[C@H]2COc3ccc(Br)cc3[C@H]2N2C(=O)N(c3ccc(Br)cc3)C(=O)[C@]12C	7.88%
CCCCCn1c(NC2CCCCC2)nc2c1c(=O)[nH]c(=O)n2C	-17.6%
O=C(COC(=O)c1cccc2ccccc12)NCCCc1ccccc1	0.562%
Cc1ccc2cc(CCNC(=O)CCCc3ccccc3)c(=O)[nH]c2c1	1.97%
Cc1nnc(NC(=O)c2nc(S(=O)(=O)Cc3ccccc3)ncc2Cl)s1	11.5%
O=c1cnn(-c2ccccc2)c(-c2ccccc2)c1	3.33%
COC(=O)CCCC1=CC2=C(c3ccccc3)C(=O)C(C)(OC(=O)C3CCCC3)C(=O)C2=CN1CCN1CCOCC1 (stereo not drawn)	-2.79%
